We go through one molecule from article PMC5002269 (2016).

One may read the Kd as a measure of binding affinity in units of concentration. Read a high Kd as a looser complex.

The experiment concerns the target FlAsH (Fluorescein Arsenical Helix-binder)-labeled Met1 diUb (UniProt P0CG48 fragment; P0CG48 fragment, FlAsH (Fluorescein Arsenical Helix-binder) label). The experiment can be described thus: FP.

B1: catalytically inactive OTULIN^C129A (enzyme)
chain: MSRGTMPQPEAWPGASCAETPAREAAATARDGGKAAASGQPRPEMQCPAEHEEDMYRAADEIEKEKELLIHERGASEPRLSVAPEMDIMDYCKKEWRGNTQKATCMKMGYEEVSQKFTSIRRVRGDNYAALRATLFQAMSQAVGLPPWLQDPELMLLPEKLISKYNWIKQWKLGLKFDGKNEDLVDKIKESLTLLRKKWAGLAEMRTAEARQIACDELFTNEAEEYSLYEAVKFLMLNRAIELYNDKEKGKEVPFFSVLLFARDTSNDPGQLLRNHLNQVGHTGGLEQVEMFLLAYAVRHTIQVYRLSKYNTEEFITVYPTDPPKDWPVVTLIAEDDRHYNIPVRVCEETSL
Regarding B1, the affinity, expressed as Kd, was 290 nM. This lies in the sub-micromolar range.
